About 14,000 (4.5%) of roughly 310,000 compounds showed an effect of 50% or more. The effect is printed as a negative number. The list shows a part of the results.
Biological target: human ether-à-go-go-related gene (hERG) potassium channel (human, UniProt Q12809)
Assay: primary screen, population patch clamp on CHO cells stably expressing hERG
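Further: peak tail current of the secondary pulse compared with the same well before compound.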

human ether-à-go-go-related gene (hERG) potassium channel, sequence (Q12809 whole entry, looked up): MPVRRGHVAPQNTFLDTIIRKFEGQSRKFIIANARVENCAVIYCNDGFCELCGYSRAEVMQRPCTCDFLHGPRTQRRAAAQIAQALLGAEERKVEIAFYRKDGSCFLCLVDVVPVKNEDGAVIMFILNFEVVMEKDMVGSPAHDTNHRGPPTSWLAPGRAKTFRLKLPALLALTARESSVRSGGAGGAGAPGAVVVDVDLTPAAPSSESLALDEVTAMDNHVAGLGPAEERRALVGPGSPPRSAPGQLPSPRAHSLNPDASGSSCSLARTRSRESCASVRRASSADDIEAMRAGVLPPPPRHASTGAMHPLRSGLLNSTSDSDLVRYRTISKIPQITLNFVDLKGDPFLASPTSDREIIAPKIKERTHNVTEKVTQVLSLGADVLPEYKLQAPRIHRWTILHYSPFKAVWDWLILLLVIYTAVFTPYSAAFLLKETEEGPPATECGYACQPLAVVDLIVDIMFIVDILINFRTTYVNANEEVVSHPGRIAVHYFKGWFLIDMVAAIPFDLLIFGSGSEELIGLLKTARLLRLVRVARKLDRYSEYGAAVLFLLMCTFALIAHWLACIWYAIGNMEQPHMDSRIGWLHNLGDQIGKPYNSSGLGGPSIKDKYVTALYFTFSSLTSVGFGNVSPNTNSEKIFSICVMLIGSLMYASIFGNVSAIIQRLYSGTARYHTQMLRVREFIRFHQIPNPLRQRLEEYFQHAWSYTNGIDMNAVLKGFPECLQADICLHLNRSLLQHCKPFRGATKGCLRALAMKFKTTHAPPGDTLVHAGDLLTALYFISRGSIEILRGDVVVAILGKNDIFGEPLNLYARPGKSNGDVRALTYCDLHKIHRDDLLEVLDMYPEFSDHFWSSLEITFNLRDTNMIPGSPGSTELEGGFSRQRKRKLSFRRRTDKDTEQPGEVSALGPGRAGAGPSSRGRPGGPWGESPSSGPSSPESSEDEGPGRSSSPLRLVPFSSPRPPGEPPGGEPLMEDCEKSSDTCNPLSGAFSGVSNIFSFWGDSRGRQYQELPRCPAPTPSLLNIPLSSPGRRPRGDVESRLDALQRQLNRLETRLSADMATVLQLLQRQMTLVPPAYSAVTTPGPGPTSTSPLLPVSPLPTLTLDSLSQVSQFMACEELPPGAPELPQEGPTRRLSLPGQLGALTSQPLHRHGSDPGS

First: CC(OC(=O)c1ccccc1Oc1ccccc1)C(=O)NC1CC1 (stereo not shown)
Second: O=C(COC(=O)[C@@H]1CCCN1S(=O)(=O)c1ccccc1F)c1ccccc1
The “hERG current change (%, negative = inhibition) at 10uM” value of the first is higher: 18.9% for the first, 3.14% for the second.

First: CN(C)C(=O)COC(=O)[C@H](Cc1ccccc1)NC(=O)c1ccco1
Second: O=C(COC(=O)c1cccs1)Nc1ccccc1
The “hERG current change (%, negative = inhibition) at 10uM” value of the first is higher: 7.23% for the first, 2.54% for the second.

First: CC(CCc1ccccc1)NC(=O)C1CCCN(c2nnc(-n3cccc3)s2)C1 (stereo not shown)
Second: Cn1c(SCC(=O)N2CCCc3ccccc32)nnc1-c1ccccc1
The “hERG current change (%, negative = inhibition) at 10uM” value of the first is higher: -11.2% for the first, -16.8% for the second.

Compared with CCOC(=O)C1=C(C)OC(N)=C(C(=O)OC)C12C(=O)Nc1ccc(Br)cc12 (stereo not shown), CCOc1cc(/C=N/NC(=O)COc2nc(C)cc(COC)c2C#N)ccc1O is lower in “hERG current change (%, negative = inhibition) at 10uM” value: 19.2% for the first, -10% for the second.

First: CC1CCN(C(=O)CSc2nnc3ccc(-c4cccnc4)nn23)CC1
Second: NC(=O)C1CCN(C(=O)CCSCc2ccccc2)CC1
The “hERG current change (%, negative = inhibition) at 10uM” value of the first is lower: -21.8% for the first, -1.36% for the second.

Compared with NS(=O)(=O)c1ccc(CNC(=O)c2ccc(S(=O)(=O)C(F)F)cc2)cc1, CCOc1ccc(C(=O)NC(C(=O)NCCc2ccc(OC(F)F)cc2)C(C)C)cc1 (stereo not shown) is lower in “hERG current change (%, negative = inhibition) at 10uM” value: 3.5% for the first, -62.6% for the second.

Going from O=C(CSc1nc2ccsc2c(=O)n1Cc1ccc(C(=O)O)cc1)NCc1ccco1 to Cc1occc1-c1nnc(SCC(=O)NCCc2ccccc2)n1Cc1ccccc1, the “hERG current change (%, negative = inhibition) at 10uM” value falls from 2.08% to -81.1%.

First: Cc1ccc(S(=O)(=O)CC(=O)N2CCN(c3cccc(C(F)(F)F)c3)CC2)cc1
Second: COC(=O)c1[nH]c2ccccc2c1NC(=O)CN1CCN(c2cccc(Cl)c2)CC1
The “hERG current change (%, negative = inhibition) at 10uM” value of the first is lower: -50.4% for the first, 6.84% for the second.

Going from COc1cc(/C=C/C(=O)N2C(=O)c3cccc(N)c3C2=O)cc(OC)c1OC to COc1cc(C(=O)N2CCN(C(=O)c3ccco3)CC2)cc(OC)c1OC, the “hERG current change (%, negative = inhibition) at 10uM” value falls from 0.941% to -2.68%.

First: Cc1ccc(S(=O)(=O)N(C)N=O)cc1
Second: CC(=O)Nc1ccc(S(=O)(=O)N[C@H](C(=O)O)C(C)C)cc1
The “hERG current change (%, negative = inhibition) at 10uM” value of the first is higher: 12.7% for the first, 3.17% for the second.

First: Cl.Nc1ccc(CCN2CCCC2)cc1
Second: O=C(CSCc1ccc(F)cc1)N1CCOCC1
The “hERG current change (%, negative = inhibition) at 10uM” value of the first is higher: 10.2% for the first, 4.35% for the second.

Going from CS(=O)(=O)N1N=C(c2cccs2)CC1c1ccccc1 (stereo not shown) to c1ccc(OCc2nn3c(-c4ccco4)nnc3s2)cc1, the “hERG current change (%, negative = inhibition) at 10uM” value falls from -11.3% to -41.1%.

Compared with O=C(CCc1nnc(-c2ccsc2)o1)NCc1ccccc1OC(F)(F)F, N/C(COc1cccc(C(F)(F)F)c1)=N\NC(=O)c1cccnc1Oc1ccccc1 is lower in “hERG current change (%, negative = inhibition) at 10uM” value: 3.76% for the first, -33.5% for the second.

Compared with Cc1ccc(S(=O)(=O)NCCC(=O)NNC(=O)COc2ccccc2Cl)cc1C, COC(=O)CNC(c1ccccc1Cl)c1cc(Br)ccc1NS(=O)(=O)c1ccc(C)cc1 (stereo not shown) is higher in “hERG current change (%, negative = inhibition) at 10uM” value: -1.77% for the first, 1.92% for the second.

Going from O=C(N/N=C/c1c(F)cccc1Cl)c1cc(C2CC2)[nH]n1 to CSc1cccc(NC(=O)/C=C/c2ccc(Cl)cc2)c1, the “hERG current change (%, negative = inhibition) at 10uM” value falls from 24% to -4.08%.

Compared with COc1ccc2[nH]c(=O)c(CN(CCCN3CCOCC3)C(=O)NCc3ccccc3)cc2c1, O=C(NCCCN1CCCC1=O)c1ccc(OCc2ccccc2)cc1 is lower in “hERG current change (%, negative = inhibition) at 10uM” value: 8.39% for the first, -12.9% for the second.

Going from Cc1nc(C(=O)NC(C)C)nn1-c1cc(Cl)cc(Cl)c1 to Cc1cccn2c(=O)c3cc(C(=O)NCc4ccco4)c(=N)n(C(C)C)c3nc12, the “hERG current change (%, negative = inhibition) at 10uM” value falls from 18.1% to -77.6%.

Going from COc1ccc(N2C(=O)CC(Sc3nc4c(cc3C#N)CCC4)C2=O)cc1 (stereo not shown) to COC(=O)CC(=O)CSc1nc2c(cc1C#N)CCC2, the “hERG current change (%, negative = inhibition) at 10uM” value falls from 21.3% to 13%.

Going from COc1cccc2c3c(c(C)nc12)CCN3c1ccccc1 to COc1ccc(Nc2nc(C)c3ccccc3n2)cc1, the “hERG current change (%, negative = inhibition) at 10uM” value rises from -54.6% to -17.4%.

First: CCOc1ccccc1Oc1coc2cc(OCC(=O)O)ccc2c1=O
Second: COc1cc([N+](=O)[O-])ccc1NC(=O)COC(=O)c1n[nH]c2ccccc12
The “hERG current change (%, negative = inhibition) at 10uM” value of the first is higher: 24.3% for the first, 13.8% for the second.

Going from COc1ccc(C(=O)Nc2cc(=O)[nH]c3ncnn23)cc1 to COc1ccc2c(c1)Cc1sc(NC(=O)c3cccnc3)nc1-2, the “hERG current change (%, negative = inhibition) at 10uM” value rises from 0.659% to 13.2%.

Compared with COc1ccc2[nH]cc(C(=O)CN3CCCC(C)(C)C3)c2c1, CCCC(=O)c1c[nH]c(C(=O)NCCCN2CCOCC2)c1 is higher in “hERG current change (%, negative = inhibition) at 10uM” value: -16.6% for the first, 11.3% for the second.

First: Cc1cc(C)nc(/N=C2\NC(=O)CC(C(=O)O)N2c2ccc(Oc3ccccc3)cc2)n1 (stereo not shown)
Second: Cc1cc(C)nc(N/N=C/c2ccccc2OCc2ccccc2)n1
The “hERG current change (%, negative = inhibition) at 10uM” value of the first is lower: 2.33% for the first, 4.6% for the second.

First: CC(=O)/C(C[N+]1(C)CCCCC1)=N\O.[I-]
Second: Cc1cc(C(=O)N2CCCCCC2)cs1
The “hERG current change (%, negative = inhibition) at 10uM” value of the first is higher: 16.4% for the first, 7.5% for the second.

First: COc1ccc(NCc2ccc([N+](=O)[O-])s2)c(OC)c1
Second: NC(=O)c1ccc(Nc2ccc3nonc3c2[N+](=O)[O-])cc1
The “hERG current change (%, negative = inhibition) at 10uM” value of the first is lower: -24.4% for the first, 4.69% for the second.

Going from CNC(=O)c1ncoc1-c1ccc(Cl)cc1 to CCN(CC)C(=O)c1[nH]cnc1C(=O)Nc1ccc(Cl)cc1, the “hERG current change (%, negative = inhibition) at 10uM” value rises from -1.31% to 9.48%.

Going from CN(C(=O)c1ccc(NC(=O)Cc2ccc(NC(=O)C3CCN(C(=O)C4CCCC4)CC3)cc2)cc1)C1CC1 to Cc1cc(C(=O)COC(=O)c2ccc(NC(=O)CC#N)cc2)c(C)n1CCc1ccc(F)cc1, the “hERG current change (%, negative = inhibition) at 10uM” value falls from 22.8% to -15.7%.

Compared with CCOc1ccc(N(C(=O)/C=C/C(=O)Nc2cc(C)on2)C(C(=O)NC2CCCC2)c2ccccc2C)cc1 (stereo not shown), CCOc1ccc(OCCOC(=O)C2CCN(S(=O)(=O)c3ccc(C)c(C)c3)CC2)cc1 is lower in “hERG current change (%, negative = inhibition) at 10uM” value: -6.96% for the first, -22.4% for the second.

First: CCC1(c2ccccc2)C(=O)NCNC1=O
Second: Cc1cccc(C)c1NC(=O)CC(C)c1ccccc1 (stereo not shown)
The “hERG current change (%, negative = inhibition) at 10uM” value of the first is lower: 1.93% for the first, 6.52% for the second.

Going from Cc1cc(OCC(=O)NCCCN(C)C)cc(C)c1Br to Cc1cc(=O)oc2cc(OCC(=O)NC3CCCCC3)ccc12, the “hERG current change (%, negative = inhibition) at 10uM” value falls from 0.957% to -60.7%.

Compared with Cn1c(=O)c2c(ncn2CC(COCc2ccc(Cl)cc2)OCc2ccc(Cl)cc2)n(C)c1=O (stereo not shown), Cc1ccc(-c2nn(-c3ccccc3)cc2C(=O)OCC(=O)Nc2ncc(Cl)cc2Cl)cc1 is higher in “hERG current change (%, negative = inhibition) at 10uM” value: -51.1% for the first, 2.82% for the second.

Going from O=C(COC(=O)c1ccc2ncsc2c1)NC(=O)NCc1ccccc1 to O=C(OCC(=O)c1ccc(Cl)s1)c1ccc2ccccc2n1, the “hERG current change (%, negative = inhibition) at 10uM” value rises from 1.12% to 3.46%.

Going from O=C1C2ON(c3ccccc3)C(c3ccncc3)C2C(=O)N1c1ccc(N2CCOCC2)cc1 (stereo not shown) to Cc1ccc(S(=O)(=O)N2CCOCC2)cc1C(=O)NCc1ccccn1, the “hERG current change (%, negative = inhibition) at 10uM” value falls from 12.4% to -0.76%.

Compared with c1ccc(-c2ccccc2OCCCCn2ccnc2)cc1, O=C(Nc1ccccc1)Nc1ccc(Nc2ccccc2)cc1 is higher in “hERG current change (%, negative = inhibition) at 10uM” value: -26.4% for the first, 17.5% for the second.

First: COc1cccc([C@@H]2CC=C(C(=O)O)[C@H](c3cccc(Cl)c3)N2S(=O)(=O)c2ccc(C)cc2)c1
Second: Cc1cccc(N2C(=O)CC(N(C(=O)c3ccco3)c3cccc(C)c3)C2=O)c1 (stereo not shown)
The “hERG current change (%, negative = inhibition) at 10uM” value of the first is higher: 4.75% for the first, 4.2% for the second.

First: CN(C(=O)COC(=O)/C=C/c1ccc(C(F)(F)F)cc1)c1c(N)n(Cc2ccccc2)c(=O)[nH]c1=O
Second: CCOC(=O)/C(N=Nc1ccc(Cl)cc1)=C(/O)c1ccc([N+](=O)[O-])cc1
The “hERG current change (%, negative = inhibition) at 10uM” value of the first is lower: -0.744% for the first, 1.17% for the second.

Going from Cc1ccc(-n2c3c(cc(C(=O)NC4CCSC4=O)c2=O)C(=O)CC(C)(C)C3)cc1 (stereo not shown) to COc1ccc(-n2c(=O)c3c4c(sc3n3cnnc23)CC(C)CC4)cc1 (stereo not shown), the “hERG current change (%, negative = inhibition) at 10uM” value rises from -10.2% to 1.32%.

Going from CC1CCCC(NC(=O)c2ccc3snnc3c2)C1C (stereo not shown) to CC(C)(C)C1CCc2onc(C(=O)NC3CCCC3)c2C1 (stereo not shown), the “hERG current change (%, negative = inhibition) at 10uM” value falls from 11% to -42.9%.

Going from CCCC[N+](CC#Cc1ccccc1)(CCCC)CCCS(=O)(=O)[O-] to CSCCC(NC(N)=O)C(=O)Nc1cccc(C#N)c1 (stereo not shown), the “hERG current change (%, negative = inhibition) at 10uM” value falls from 25.2% to 8.79%.

First: Cc1cccc(NC(=O)C(C)N2C(=O)C3C4CC(C(Br)C4Br)C3C2=O)c1 (stereo not shown)
Second: O=C(c1cc(C2CC2)nc2ccc(Br)cc12)N1N=C(C(F)F)CC1(O)C(F)F (stereo not shown)
The “hERG current change (%, negative = inhibition) at 10uM” value of the first is higher: 3.14% for the first, -7.89% for the second.

Compared with O=C(NCCc1ccccc1)c1noc2c1CCCCC2, CC1CCN(c2nc3ccccc3nc2C(C#N)C(=O)OC2CCCCC2)CC1 (stereo not shown) is higher in “hERG current change (%, negative = inhibition) at 10uM” value: -2.58% for the first, 11.3% for the second.

First: COCCCNC(=S)NNC(=O)c1ccc(C(C)(C)C)cc1
Second: CC(C)(C)OC(=O)CNC(=O)c1nc[nH]c1C(=O)NCc1ccc(CNC(=O)OC(C)(C)C)cc1
The “hERG current change (%, negative = inhibition) at 10uM” value of the first is higher: 2.06% for the first, -16.6% for the second.

Compared with O=C(O)CC/C(=N\Nc1ccc(Cl)cc1)c1cccs1, O=C(CSc1nnnn1-c1ccccc1)Nc1nc(-c2ccccc2)ns1 is higher in “hERG current change (%, negative = inhibition) at 10uM” value: 14.9% for the first, 19.9% for the second.

First: Cc1ccc(N2CCN(CC3CC=CCC3)CC2)cc1 (stereo not shown)
Second: CN(C(=O)c1ccno1)c1nnc(-c2cnccn2)s1
The “hERG current change (%, negative = inhibition) at 10uM” value of the first is lower: -27.4% for the first, 6.99% for the second.

From article PMC4336329 (PLoS ONE, 2015)
